Laboratory results from PubChem BioAssay AID2147 (National Center for Advancing Translational Sciences (NCATS), 2009).
Hit rate of the full screen: of about 230,000 compounds, about 3,600 (1.6%) were called active. The shares of active, inactive and inconclusive entries below differ from those in the screen. Calls come from the whole dose curve; as a rule, active = well fitted inhibition curve with a large enough effect (not every such curve was filed as active); inconclusive = small, poorly fitted or top-dose-only effect, or another doubt; inactive = no such curve, though single readings can be large or run the other way. Potencies beside an inconclusive call are fits to weak or partial responses and may not hold up.
Note: nearly all actives have a fitted effect of over 50% in size.
Potency is the fitted concentration of half-maximal effect; tags give direction and shape of the fitted curve.

Each molecule was assayed against Lysine-specific demethylase 4E (Homo sapiens) (UniProt B2RXH2) (assay: qHTS Assay for Inhibitors of Human Jumonji Domain Containing 2E (JMJD2E)). Conditions: JMJD2E catalytic domain, FDH-coupled NADH fluorescence (FDH is formaldehyde dehydrogenase); series mostly up to 57.1 µM.
UniProt B2RXH2, sequence (B2RXH2 whole entry, looked up, the tested form may be a part): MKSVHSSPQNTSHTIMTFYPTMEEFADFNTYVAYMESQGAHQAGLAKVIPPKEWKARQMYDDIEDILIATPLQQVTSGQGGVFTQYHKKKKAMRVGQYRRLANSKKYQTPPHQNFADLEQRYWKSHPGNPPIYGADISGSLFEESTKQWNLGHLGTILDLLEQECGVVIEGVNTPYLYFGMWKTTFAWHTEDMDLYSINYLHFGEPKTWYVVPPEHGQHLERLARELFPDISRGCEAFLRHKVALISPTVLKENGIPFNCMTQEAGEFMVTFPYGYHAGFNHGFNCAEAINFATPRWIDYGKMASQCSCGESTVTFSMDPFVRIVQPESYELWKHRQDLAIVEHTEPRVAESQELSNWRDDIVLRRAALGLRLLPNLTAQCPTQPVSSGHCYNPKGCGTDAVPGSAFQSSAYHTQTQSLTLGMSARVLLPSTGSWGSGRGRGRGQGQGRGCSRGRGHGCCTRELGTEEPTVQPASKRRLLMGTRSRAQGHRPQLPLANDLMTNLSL
`NS(=O)(=O)c1cc2c(cc1C(F)(F)F)N[C@H](Cc1ccccc1)NS2(=O)=O` was tested, and the Potency was inconclusive: 14.1 µM [inhibitor, single point]. `O=S(=O)(NCCC1=CCCCC1)c1cccc(S(=O)(=O)N2CCOCC2)c1` was tested, and the Potency was “inactive”. For `Cc1ccc(NC(=O)c2cc(N3C(=O)C=CC3=O)ccc2N2CCOCC2)cc1`, the Potency was “inactive”. In the case of `COC(=O)c1nn(-c2ccc3c(c2)OCO3)cc1O`, the Potency is reported as inconclusive: 35.5 µM [inhibitor, partial curve]. With `COc1ccc2[nH]c(C(=O)Nc3ccccc3Cl)cc2c1` the Potency was inconclusive: 31.6 µM [inhibitor, partial curve]. With `O=C(O)Cc1sc(-c2cccnc2)nc1-c1ccc(Br)cc1` the Potency was inconclusive: 28.2 µM [inhibitor, single point]. In the case of `CCCn1c(-c2ccc(F)cc2)nc2c(N3CCN(Cc4nc(OC)cc(OC)n4)CC3)nc(C)nc21`, the Potency is reported as inconclusive: 28.2 µM [inhibitor, partial curve]. `CCc1ccc2nc(NC(=O)c3ccc4c(=O)[nH]c(CN5CCOCC5)nc4c3)sc2c1` was tested, and the Potency was inconclusive: 35.5 µM [inhibitor, single point]. For `O=C(NCc1ccco1)c1cc([N+](=O)[O-])ccc1Cl`, the Potency was “inactive”. With `COc1ccccc1N1CCN(C(=O)C(=O)N/N=C/c2cccc(O)c2)CC1` the Potency was inconclusive: 39.8 µM [inhibitor, single point]. In the case of `Nc1nc2ncc(=O)[nH]c2c(=O)[nH]1`, the Potency is reported as inconclusive: 3.55 µM [inhibitor, partial curve]. For `Cc1cc(C)cc(OCC(=O)N(Cc2ccc(N(C)C)cc2)C2CCS(=O)(=O)C2)c1` (stereo not given), the Potency was “inactive”. For `CCOP(=O)(OCC)c1nc(-c2cccc3ccccc23)oc1NCc1ccc(OC)cc1`, the Potency was inconclusive: 28.2 µM [inhibitor, partial curve]. In the case of `CCOC(=O)c1cc(-c2ccc(C)o2)nn1CCC#N`, the Potency is reported as “inactive”. With `CN1CCC(N(C)C(=O)/C(C#N)=C/c2ccc(OC(F)F)cc2)CC1` the Potency was inconclusive: 39.8 µM [inhibitor, single point]. `O=C(O)c1cccc(S(=O)(=O)Nc2ccc3[nH]c(=O)[nH]c3c2)c1` was tested, and the Potency was “inactive”. For `CNC(=O)c1ccc(-c2ccccc2)s1`, the Potency was inconclusive: 28.2 µM [inhibitor, partial curve]. In the case of `CCCCSc1nnc(-c2ccc(C)cc2)c2ccccc12`, the Potency is reported as “inactive”. `Cc1cc(-c2ccc(Cl)cc2)n2nc(N)nc2n1` was tested, and the Potency was inconclusive: 28.2 µM [inhibitor, partial curve]. `CCN(CC)CCC(c1ccc(N(C)C)cc1)c1c(OC)cc(OC)c2c(-c3ccccc3)cc(=O)oc12` (stereo not given) was tested, and the Potency was “inactive”. In the case of `O=C(O)C1=C[C@H](c2cccs2)C[C@H](OCc2ccc(CO)cc2)O1`, the Potency is reported as inconclusive: 28.2 µM [inhibitor, single point]. For `Cc1nc2ccc(NC(=O)COc3ccccc3C)cc2s1`, the Potency was “inactive”. For `COc1ccc(C2OC34CCCCC3C(C#N)(C#N)C2(C#N)C(=N)O4)cc1` (stereo not given), the Potency was inconclusive: 31.6 µM [inhibitor, partial curve]. With `CCCN1CCN(CCCNC(=O)c2cc3c(=O)n(C)c4ccccc4c3n2C)CC1` the Potency was inconclusive: 35.5 µM [inhibitor, single point]. In the case of `O=C(CC1Oc2ccccc2NC1=O)NCc1ccccc1` (stereo not given), the Potency is reported as “inactive”. In the case of `C/C(=N\NC(=O)c1cc(C)oc1C)c1ccc(N2CCOCC2)cc1`, the Potency is reported as inconclusive: 35.5 µM [inhibitor, single point]. With `COc1ccccc1CCNC(=O)CSc1nnc2ccc(-c3cccnc3)nn12` the Potency was inconclusive: 39.8 µM [inhibitor, single point]. `COc1cc(NC(=O)c2cc3c(C)nc4ccccc4c3o2)cc(OC)c1OC` was tested, and the Potency was “inactive”. With `CC(C)c1ccc(C2C3CSCC=C3C(C#N)=C(N)C2(C#N)C#N)cc1` (stereo not given) the Potency was inconclusive: 28.2 µM [inhibitor, single point]. In the case of `CCOc1ccc(C(=O)NC(=S)Nc2ccc(N3CCCCC3)cc2)cc1[N+](=O)[O-]`, the Potency is reported as “inactive”. With `O=C(Nc1nc2ccc(S(=O)(=O)N3CCOCC3)cc2s1)c1cccs1` the Potency was inconclusive: 25.1 µM [inhibitor, partial curve]. For `COc1ccc(CCNC(=O)C2CCCN(c3nc(C)cc(C)n3)C2)cc1` (stereo not given), the Potency was inconclusive: 35.5 µM [inhibitor, single point]. `Cc1cc(C(=O)COC(=O)c2ccccc2O)c(C)n1Cc1cccs1` was tested, and the Potency was inconclusive: 39.8 µM [inhibitor, single point]. `COCCCN1C(=O)/C(=C\c2ccc3c(c2)OCO3)C(C(=O)OC)=C1C` was tested, and the Potency was inconclusive: 28.2 µM [inhibitor, single point]. For `CCCCNC(=O)Cn1c2c(c(-c3ccccc3Cl)cc1=O)CCC2`, the Potency was inconclusive: 25.1 µM [inhibitor, partial curve]. For `CCOC(=O)c1sc(NC(=O)c2ccc(S(=O)(=O)N3CCCCC3)cc2)nc1-c1ccccc1`, the Potency was inconclusive: 31.6 µM [inhibitor, partial curve]. With `O=C(Nc1ccccc1Cl)Nc1ccccc1Cl` the Potency was “inactive”. In the case of `CSc1sc(C(=O)O)c2c1C(=O)CCC2`, the Potency is reported as inconclusive: 35.5 µM [inhibitor, single point]. With `C/C(=N\NC(=S)NCc1ccccc1)c1ccco1` the Potency was “inactive”. For `COc1ccc(-n2nc(C(=O)NCC(=O)NCC3CCCO3)c3ccccc3c2=O)c(OC)c1` (stereo not given), the Potency was “inactive”. For `CCOc1ccc(-c2cc(C(=O)NCCCN3CCN(CC)CC3)c3ccccc3n2)cc1`, the Potency was inconclusive: 28.2 µM [inhibitor, partial curve]. With `Cc1cc(N2CCN(C)CC2)nc2ccc(NC(=S)N3CCN(c4ccccn4)CC3)cc12` the Potency was inconclusive: 28.2 µM [inhibitor, partial curve]. In the case of `CC(=O)c1cc(NC(=O)c2ccccc2)c(=O)oc1C`, the Potency is reported as inconclusive: 3.16 µM [inhibitor, partial curve]. In the case of `CC(C)c1nc2oc3c(NCC4CCCO4)ncnc3c2c2c1CCC2` (stereo not given), the Potency is reported as inconclusive: 28.2 µM [inhibitor, partial curve]. `O=c1cc(-c2ccccc2)[nH][nH]1` was tested, and the Potency was inconclusive: 1 µM [inhibitor, partial curve, poor fit].
